# Experimental data from the supplement of paper PMC8728848.
# Some of the results follow.
# B1: Siglec-E (Mus musculus), Q91Y57 (protein)
# chain: MLLLLLLLLLWGIKGVEGQNPQEVFTLNVERKVVVQEGLCVLVPCNFSYLKKRLTDWTDSDPVHGFWYREGTDRRKDSIVATNNPIRKAVKETRNRFFLLGDPWRNDCSLNIREIRKKDAGLYFFRLERGKTKYNYMWDKMTLVVTALTNTPQILLPETLEAGHPSNLTCSVPWDCGWTAPPIFSWTGTSVSFLSTNTTGSSVLTITPQPQDHGTNLTCQVTLPGTNVSTRMTTRLNVSYAPKNLTVTIYQGADSVSTILKNGSSLPISEGQSLRLICSTDSYPPANLSWSWDNLTLCPSKLSKPGLLELFPVHLKHGGVYTCQAQHALGSQHISLSLSPQSSATLSEMMMGTFVGSGVTALLFLSVCILLLAVRSYRRKPARPAVVAPHPDALKVSVSQNPLVESQADDSSEPLPSILEAAPSSTEEEIHYATLSFHEMKPMNLWGQQDTTTEYSEIKFPQRTAWP
# Legend:
# Assay in all cases: glycan array binding signal (z-score within array); higher = stronger binding
# Details in all cases: glycan notation: IUPAC condensed, linker removed
# Fuc(a1-2)Gal = biological target: Fuc(a1-2)Gal
# Method in brief: (§1)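 Arrays were curated from the Consortium for Functional Glycomics database, 3228 in total, and kept only where the protein sequence was available. Binding is expressed as a within-array Z-score. This score was averaged across arrays of the same protein sequence at different concentrations or buffers and across linkers, and negative values can be read as non-binding.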
# Fuc(a1-2)Gal(b1-3)GalNAc = biological target: Fuc(a1-2)Gal(b1-3)GalNAc
# Method in brief: as §1
# [1] = biological target: Fuc(a1-2)Gal(b1-3)GalNAc(a1-3)[Fuc(a1-2)]Gal(b1-4)Glc
# Method in brief: as §1
# [2] = biological target: Fuc(a1-2)Gal(b1-3)GalNAc(a1-3)[Fuc(a1-2)]Gal(b1-4)GlcNAc
# Method in brief: as §1
# [3] = biological target: Fuc(a1-2)Gal(b1-3)GalNAc(b1-3)Gal
# Method in brief: as §1
# [4] = biological target: Fuc(a1-2)Gal(b1-3)GalNAc(b1-3)Gal(a1-4)Gal(b1-4)Glc
# Method in brief: as §1
# [5] = biological target: Fuc(a1-2)Gal(b1-3)GalNAc(b1-4)[Neu5Ac(a2-3)]Gal(b1-4)Glc
# Method in brief: as §1
# Fuc(a1-2)Gal(b1-3)GlcNAc = biological target: Fuc(a1-2)Gal(b1-3)GlcNAc
# Method in brief: as §1
# [6] = biological target: Fuc(a1-2)Gal(b1-3)GlcNAc(b1-2)Man(a1-3)[Fuc(a1-2)Gal(b1-3)GlcNAc(b1-2)Man(a1-6)]Man(b1-4)GlcNAc(b1-4)GlcNAc
# Method in brief: as §1
# [7] = biological target: Fuc(a1-2)Gal(b1-3)GlcNAc(b1-2)Man(a1-3)[Fuc(a1-2)Gal(b1-3)GlcNAc(b1-2)Man(a1-6)]Man(b1-4)GlcNAc(b1-4)[Fuc(a1-6)]GlcNAc
# Method in brief: as §1
# [8] = biological target: Fuc(a1-2)Gal(b1-3)GlcNAc(b1-3)Gal(b1-4)Glc
# Method in brief: as §1
# [9] = biological target: Fuc(a1-2)Gal(b1-3)GlcNAc(b1-3)GalNAc
# Method in brief: as §1
# [10] = biological target: Fuc(a1-2)Gal(b1-3)GlcNAc(b1-3)[Fuc(a1-2)Gal(b1-3)GlcNAc(b1-6)]GalNAc
# Method in brief: as §1
# [11] = biological target: Fuc(a1-2)Gal(b1-3)GlcNAc(b1-3)[Gal(b1-4)GlcNAc(b1-6)]Gal(b1-4)Glc
# Method in brief: as §1
# [12] = biological target: Fuc(a1-2)Gal(b1-3)GlcNAc(b1-3)[Neu5Ac(a2-6)Gal(b1-4)GlcNAc(b1-6)]Gal(b1-4)Glc
# Method in brief: as §1
# [13] = biological target: Fuc(a1-2)Gal(b1-3)GlcNAc6S
# Method in brief: as §1
# [14] = biological target: Fuc(a1-2)Gal(b1-3)[Fuc(a1-4)]GlcNAc
# Method in brief: as §1
# [15] = biological target: Fuc(a1-2)Gal(b1-3)[Fuc(a1-4)]GlcNAc(b1-2)Man(a1-3)[Fuc(a1-2)Gal(b1-3)[Fuc(a1-4)]GlcNAc(b1-2)Man(a1-3)]Man(b1-4)GlcNAc(b1-4)GlcNAc
# Method in brief: as §1
# [16] = biological target: Fuc(a1-2)Gal(b1-3)[Fuc(a1-4)]GlcNAc(b1-2)Man(a1-3)[Fuc(a1-2)Gal(b1-3)[Fuc(a1-4)]GlcNAc(b1-2)Man(a1-6)]Man(b1-4)GlcNAc(b1-4)[Fuc(a1-6)]GlcNAc(b1-4)[Fuc(a1-6)]GlcNAc
# Method in brief: as §1
# [17] = biological target: Fuc(a1-2)Gal(b1-3)[Fuc(a1-4)]GlcNAc(b1-3)[Fuc(a1-3)[Gal(b1-4)]GlcNAc(b1-6)]Gal(b1-4)Glc
# Method in brief: as §1
# [18] = biological target: Fuc(a1-2)Gal(b1-3)[Fuc(a1-4)]GlcNAc(b1-3)[Gal(b1-4)GlcNAc(b1-6)]Gal(b1-4)Glc
# Method in brief: as §1
# [19] = biological target: Fuc(a1-2)Gal(b1-4)Fuc(a1-3)]GlcNAc(b1-2)Man(a1-3)[Fuc(a1-2)Gal(b1-4)[Fuc(a1-3)]GlcNAc(b1-2)Man(a1-6)]Man(b1-4)GlcNAc(b1-4)GlcNAc
# Method in brief: as §1
# Fuc(a1-2)Gal(b1-4)Glc = biological target: Fuc(a1-2)Gal(b1-4)Glc
# Method in brief: as §1
# Fuc(a1-2)Gal(b1-4)Glc6S = biological target: Fuc(a1-2)Gal(b1-4)Glc6S
# Method in brief: as §1
# Fuc(a1-2)Gal(b1-4)GlcNAc = biological target: Fuc(a1-2)Gal(b1-4)GlcNAc
# Method in brief: as §1
# [20] = biological target: Fuc(a1-2)Gal(b1-4)GlcNAc(b1-2)Man
# Method in brief: as §1
# [21] = biological target: Fuc(a1-2)Gal(b1-4)GlcNAc(b1-2)Man(a1-3)[Fuc(a1-2)Gal(b1-4)GlcNAc(b1-2)Man(a1-6)]Man(b1-4)GlcNAc(b1-4)GlcNAc
# Method in brief: as §1
# [22] = biological target: Fuc(a1-2)Gal(b1-4)GlcNAc(b1-2)Man(a1-3)[Fuc(a1-2)Gal(b1-4)GlcNAc(b1-2)Man(a1-6)]Man(b1-4)GlcNAc(b1-4)[Fuc(a1-6)]GlcNAc
# Method in brief: as §1
# [23] = biological target: Fuc(a1-2)Gal(b1-4)GlcNAc(b1-2)[Fuc(a1-2)Gal(b1-4)GlcNAc(b1-4)]Man(a1-3)[Fuc(a1-2)Gal(b1-4)GlcNAc(b1-2)Man(a1-6)]Man(b1-4)GlcNAc(b1-4)GlcNAc
# Method in brief: as §1
# [24] = biological target: Fuc(a1-2)Gal(b1-4)GlcNAc(b1-3)Gal(b1-4)GlcNAc
# Method in brief: as §1
# [25] = biological target: Fuc(a1-2)Gal(b1-4)GlcNAc(b1-3)Gal(b1-4)GlcNAc(b1-2)Man(a1-3)[Fuc(a1-2)Gal(b1-4)GlcNAc(b1-3)Gal(b1-4)GlcNAc(b1-2)Man(a1-6)]Man(b1-4)GlcNAc(b1-4)GlcNAc
# Method in brief: as §1
# [26] = biological target: Fuc(a1-2)Gal(b1-4)GlcNAc(b1-3)Gal(b1-4)GlcNAc(b1-3)Gal(b1-4)GlcNAc
# Method in brief: as §1
# [27] = biological target: Fuc(a1-2)Gal(b1-4)GlcNAc(b1-3)GalNAc
# Method in brief: as §1
# [28] = biological target: Fuc(a1-2)Gal(b1-4)GlcNAc(b1-3)[Fuc(a1-2)Gal(b1-4)GlcNAc(b1-6)]GalNAc
# Method in brief: as §1
# [29] = biological target: Fuc(a1-2)Gal(b1-4)GlcNAc(b1-3)[Fuc(a1-3)[Gal(b1-4)]GlcNAc(b1-6)]Gal(b1-4)Glc
# Method in brief: as §1
# [30] = biological target: Fuc(a1-2)Gal(b1-4)GlcNAc(b1-6)GalNAc
# Method in brief: as §1
# [31] = biological target: Fuc(a1-2)Gal(b1-4)GlcNAc6S
# Method in brief: as §1
# [32] = biological target: Fuc(a1-2)Gal(b1-4)[Fuc(a1-3)]GlcNAc
# Method in brief: as §1
# [33] = biological target: Fuc(a1-2)Gal(b1-4)[Fuc(a1-3)]GlcNAc(b1-2)Man(a1-3)[Fuc(a1-2)Gal(b1-4)[Fuc(a1-3)]GlcNAc(b1-2)Man(a1-6)]Man(b1-4)GlcNAc(b1-4)[Fuc(a1-6)]GlcNAc
# Method in brief: as §1
# [34] = biological target: Fuc(a1-2)Gal(b1-4)[Fuc(a1-3)]GlcNAc(b1-2)[Fuc(a1-2)Gal(b1-4)[Fuc(a1-3)]GlcNAc(b1-4)]Man(a1-3)[Fuc(a1-2)Gal(b1-4)[Fuc(a1-3)]GlcNAc(b1-2)Man(a1-6)]Man(b1-4)GlcNAc(b1-4)GlcNAc
# Method in brief: as §1
# [35] = biological target: Fuc(a1-2)Gal(b1-4)[Fuc(a1-3)]GlcNAc(b1-3)Gal(b1-4)[Fuc(a1-3)]GlcNAc
# Method in brief: as §1
# [36] = biological target: Fuc(a1-2)Gal(b1-4)[Fuc(a1-3)]GlcNAc(b1-3)Gal(b1-4)[Fuc(a1-3)]GlcNAc(b1-3)Gal(b1-4)[Fuc(a1-3)]GlcNAc
# Method in brief: as §1
# [37] = biological target: Fuc(a1-2)Gal(b1-4)[Fuc(a1-3)]GlcNAc(b1-3)GalNAc
# Method in brief: as §1
# [38] = biological target: Fuc(a1-2)Gal(b1-4)[Fuc(a1-3)]GlcNAc(b1-3)[Neu5Ac(a2-6)Gal(b1-4)GlcNAc(b1-6)]Gal(b1-4)Glc
# Method in brief: as §1
# [39] = biological target: Fuc(a1-2)Gal3S(b1-4)GlcNAc
# Method in brief: as §1
binder,measurement,setting,value
B1,glycan array binding signal (z-score),Fuc(a1-2)Gal,-0.259
same,glycan array binding signal (z-score),Fuc(a1-2)Gal(b1-3)GalNAc,-0.425
same,glycan array binding signal (z-score),[1],-0.209
same,glycan array binding signal (z-score),[2],-0.375
same,glycan array binding signal (z-score),[3],-0.294
same,glycan array binding signal (z-score),[4],-0.274
same,glycan array binding signal (z-score),[5],-0.497
same,glycan array binding signal (z-score),Fuc(a1-2)Gal(b1-3)GlcNAc,-0.452
same,glycan array binding signal (z-score),[6],0.618
same,glycan array binding signal (z-score),[7],1.9
same,glycan array binding signal (z-score),[8],-0.32
same,glycan array binding signal (z-score),[9],-0.351
same,glycan array binding signal (z-score),[10],-0.394
same,glycan array binding signal (z-score),[11],0.793
same,glycan array binding signal (z-score),[12],-0.339
same,glycan array binding signal (z-score),[13],-0.285
same,glycan array binding signal (z-score),[14],-0.374
same,glycan array binding signal (z-score),[15],3.48
same,glycan array binding signal (z-score),[16],0.284
same,glycan array binding signal (z-score),[17],-0.582
same,glycan array binding signal (z-score),[18],-0.355
same,glycan array binding signal (z-score),[19],2.78
same,glycan array binding signal (z-score),Fuc(a1-2)Gal(b1-4)Glc,-0.323
same,glycan array binding signal (z-score),Fuc(a1-2)Gal(b1-4)Glc6S,-0.321
same,glycan array binding signal (z-score),Fuc(a1-2)Gal(b1-4)GlcNAc,-0.46
same,glycan array binding signal (z-score),[20],0.321
same,glycan array binding signal (z-score),[21],-0.228
same,glycan array binding signal (z-score),[22],3.46
same,glycan array binding signal (z-score),[23],-0.134
same,glycan array binding signal (z-score),[24],-0.336
same,glycan array binding signal (z-score),[25],-0.402
same,glycan array binding signal (z-score),[26],-0.296
same,glycan array binding signal (z-score),[27],0.15
same,glycan array binding signal (z-score),[28],0.034
same,glycan array binding signal (z-score),[29],-0.559
same,glycan array binding signal (z-score),[30],-0.489
same,glycan array binding signal (z-score),[31],0.191
same,glycan array binding signal (z-score),[32],-0.399
same,glycan array binding signal (z-score),[33],0.58
same,glycan array binding signal (z-score),[34],0.32
same,glycan array binding signal (z-score),[35],-0.458
same,glycan array binding signal (z-score),[36],-0.489
same,glycan array binding signal (z-score),[37],-0.019
same,glycan array binding signal (z-score),[38],-0.483
same,glycan array binding signal (z-score),[39],-0.524
